The whole screen tested about 350,000 compounds, of which about 9,900 (2.8%) were called active. Inconclusive results, whose numbers are uncertain, are shown with a selection of clear calls. Calls follow the shape of the dose curve; as a rule, active = well fitted activation curve with a large enough effect; inconclusive = small, poorly fitted or top-dose-only effect; inactive = no such curve, though single readings can be large or run the other way. Potencies of inconclusive entries are left out as doubtful fits.
Assay: A quantitative high throughput screen for small molecules that induce DNA re-replication in MCF 10a normal breast cells. Also: nearly all actives have a fitted effect of over 50% in size. As to activity, positive = re-replication: % of control where 0% means no effect.
Conditions: MCF 10A DNA re-replication, Hoechst nuclear intensity, 48 h; activity, positive = re-replication: at 46.1 µM (top of the series)
Potency is read from the fitted curve at half-maximal effect; tags tell the direction and shape of the fitted curve.

SMILES	Potency	activity, positive = re-replication
CCOc1ccccc1C=C1SC(=S)NC1=O	active: 18.4 µM	–
COC(=O)N/N=C\c1ccc(-c2cc(Cl)c(Cl)cc2Cl)o1	inconclusive [activator, partial curve, poor fit]	–
CC1(C)Cc2c(sc(NC(=O)C(=O)N3CCCC3)c2C#N)CO1	–	inactive: 2.44%
CCOc1ccc(N(C(=O)c2ccc(S(=O)(=O)N3CCCC3)cc2)C2C=CS(=O)(=O)C2)cc1 (stereo not drawn)	–	inconclusive: 49.2% [activator]
COc1ccc(OC)c(-c2csc(NC(=O)C3=COCCO3)n2)c1	–	inactive: 23%
CCc1cc2cc3c(cc2nc1SCC(=O)Nc1cc(C)on1)OCO3	inconclusive [activator, single point]	–
O=C(O)c1cccc(N2CCCC2)c1	inconclusive [activator, single point]	–
COc1ccc(NC(C)C(=O)N/N=C/c2ccccc2OCc2cccc(Br)c2)cc1 (stereo not drawn)	inconclusive [activator, full curve]	–
Cc1noc(/C=C/N(C)C)c1S(=O)(=O)N1CCCC(C(=O)Nc2ccc(F)cc2F)C1 (stereo not drawn)	inconclusive [activator, single point]	–
COc1ccc(C2=NN(c3ccc(C=O)cc3)C(c3ccccc3)C2)cc1 (stereo not drawn)	inconclusive [activator, partial curve, poor fit]	–
CN(C(=O)CSc1nc2c(c(=O)[nH]1)CCCC2)C1CCCCC1	inconclusive [activator, single point]	–
COc1ccc(NC(=O)CSCc2cc(=O)n3ccsc3n2)cc1	–	inactive: 1.01%
CCOc1ccccc1CN1CCN(Cc2cc(=O)c3ccccc3[nH]2)CC1CCO (stereo not drawn)	inconclusive [activator, single point]	–
CCN(Cc1nc2ccccc2c(=O)[nH]1)C(=O)COc1ccccc1Cc1ccccc1	inconclusive [activator, partial curve, poor fit]	–
CCn1ncc2c(OCc3ccc(C#N)cc3)cc(C)nc21	inconclusive [activator, single point]	–
Cc1ccc(CNC(=O)CCSCc2ccccc2F)cc1	–	inactive: 6.38%
CSc1ncc2c(n1)-c1cc(C)ccc1SC2	inconclusive [activator, single point]	–
CCC(C)/C(C)=N/NC(=O)c1ccc(CSc2nc3ccccc3s2)cc1 (stereo not drawn)	inconclusive [activator, partial curve, poor fit]	–
CCCCN1C(=O)NC(c2ccc(OC)cc2)C(C(=O)OCc2ccccc2)=C1C (stereo not drawn)	inconclusive [activator, single point]	–
COc1ccc(OC)c(CNn2c(-c3ccccc3F)nc3ccccc3c2=O)c1	inconclusive [activator, full curve, poor fit]	–
COc1ccc(C2=NOC(C(=O)NCc3ccccc3)C2)cc1 (stereo not drawn)	active: 0.366 µM	–
CC(SC1=NCCN1S(C)(=O)=O)c1ccccc1 (stereo not drawn)	–	inactive: 9.36%
COc1ccccc1/C=C/C(=O)OCC(=O)Nc1cc(C(F)(F)F)ccc1N1CCOCC1	inconclusive [activator, full curve, poor fit]	–

SMILES	Potency	activity, positive = re-replication
CCC(=NCCc1ccc(OC)c(OC)c1)c1ccccc1O	inconclusive [activator, full curve, poor fit]	–
O=C(CCn1c(=O)c2cccn2c2cccnc21)NCc1cccc(Cl)c1	–	inactive: -0.191%
Cc1sc2cc3c(c(C(=O)c4ccccc4)[n+]2c1C)-c1cccc2cccc-3c12	active: 11.6 µM	–
Cc1ccc(S(=O)(=O)N2CCOCC2)cc1-c1n[nH]c(=S)n1-c1ccccc1	–	inactive: -1.51%
Cc1c(N=Nc2c(-c3ccc([N+](=O)[O-])cc3)[nH]n(C(N)=S)c2=O)cccc1[N+](=O)[O-]	inconclusive [activator, partial curve, poor fit]	–
Cc1cccc2sc(NC(=O)c3cc(S(=O)(=O)N(C)C)ccc3N3CCCC3)nc12	inconclusive [activator, partial curve, poor fit]	–
O=S(=O)(NCCN1CCOCC1)c1ccc(F)c(Cl)c1	inconclusive [activator, single point]	–
COc1ccc(NC(=O)C(=O)NCCC2CCCCN2S(=O)(=O)c2ccccc2)cc1 (stereo not drawn)	inconclusive [activator, partial curve]	–
O=C1N=C(c2ccccc2)S/C1=C\c1cccs1	–	inactive: -3.6%
COc1cc(OC)c(NC(=O)c2sc3ncn(CC(=O)N4CCOCC4)c(=O)c3c2C)cc1Cl	–	inactive: 0.921%
Cc1ccc(NC(=O)C2CCCN2C(=O)OC(C)(C)C)cc1C (stereo not drawn)	–	inactive: 3.33%
COc1ccc(-c2c(-c3ccc(C#N)cc3)oc(=O)c3cc(OC)c(OC)cc23)cc1	inconclusive [activator, partial curve, poor fit]	–
CC(C)C[C@H](NC(=O)c1nc[nH]c1C(=O)N1CCC(C)CC1)C(=O)OC(C)(C)C	inconclusive [activator, full curve, poor fit]	–
COc1ccc(C2C(C(=O)c3ccco3)=C(O)C(=O)N2CCN2CCOCC2)cc1 (stereo not drawn)	inconclusive [activator, single point]	–
O=C(CSc1ncnc2sc3c(c12)CCCCC3)NCc1ccco1	active: 3.98 µM	–
COc1ccc(OC)c2sc(N(CCN(C)C)C(=O)/C=C/c3cccs3)nc12	inconclusive [activator, single point]	–
CCOC(=O)c1c(C)c(C(=O)NCc2ccco2)c(C)n1CC	–	inactive: -1.18%
Cc1ccc(S(=O)(=O)N(C)c2ccc(OCC(=O)NCC3(N(C)C)CCCCC3)cc2)cc1	inconclusive [activator, partial curve, poor fit]	–
Cc1sc2nc(COC(=O)C(NC(=O)c3ccc(Cl)cc3Cl)C(C)C)[nH]c(=O)c2c1C (stereo not drawn)	inconclusive [activator, single point]	–
CCCOc1ccc(CC(=O)NCc2ccco2)cc1OC	–	inactive: -2.53%
Cc1ccc(Cl)c2sc(NC(=O)C3=COCCO3)nc12	inconclusive [activator, partial curve, poor fit]	–
Cc1ccc(C)c(NC(=S)NNC(=S)Nc2ccc(C(C)C)cc2)c1	inconclusive [activator, single point]	–
COCCCn1c(=O)c2ccccc2n2c(=S)[nH]nc12	–	inactive: 4.48%

SMILES	Potency	activity, positive = re-replication
CCOC(=O)c1c(C)[nH]c(C)c1C(=O)COc1ncnc2ccccc12	inconclusive [activator, single point]	–
Cn1nc([N+](=O)[O-])nc1Sc1nnc(-c2ccccc2)o1	inconclusive [activator, single point]	–
Cc1ccc(C(=O)/C=C/c2ccc(Br)cc2)o1	active: 7.31 µM	–
CN(/N=C/c1ccc(N(C)C)cc1)C1=NS(=O)(=O)c2ccccc21	active: 8.2 µM	–
Cc1nc(OCC(=O)c2ccc(Cl)cc2)c(C#N)c2c1COC(C)(C)C2	active: 4.61 µM	–
Cc1cc2c3c(c1)C(C)(c1ccccc1)CC(C)(C)N3C(=O)C21C(C#N)=C(N)OC2=C1C(=O)CC(C)(C)C2 (stereo not drawn)	inconclusive [activator, single point]	–
Cc1ccc(S(=O)(=O)CC(=O)Nc2ccc(S(=O)(=O)Nc3ccccn3)cc2)cc1	active: 1.46 µM	–
COc1cccc(C(=O)SC2=NCCS2)c1	active: 14.6 µM	–
O=C(Nc1ncc(C(F)(F)F)cc1Cl)c1ccc(S(=O)(=O)N2CCOCC2)cc1	inconclusive [activator, partial curve, poor fit]	–
Cc1ccc(C(=O)Nc2ccc(NC(=O)c3cccs3)cc2)c(C)c1	inconclusive [activator, single point]	–
Cc1cc(NC(=O)c2c(F)cccc2Cl)n(-c2nc3ccccc3[nH]2)n1	active: 10 µM	–
CCOC(=O)C1=C(CNCc2ccc(C)cc2)NC(=O)NC1c1ccc(OC)cc1 (stereo not drawn)	inconclusive [activator, single point]	–
COc1cccc(CN(C)Cc2cc(=O)oc3cc(O)c(Cl)cc23)c1	active: 20.6 µM	–
COc1ccc(CCN2CCCC(CN(C)Cc3cc(OC)c(OC)c(OC)c3)C2)cc1 (stereo not drawn)	inconclusive [activator, single point]	–
CC(C)OCC(O)CN1CCN(CCN2C(=O)c3cccc4cccc(c34)C2=O)CC1 (stereo not drawn)	inconclusive [activator, single point]	–
O=C(Nc1cccc2ccccc12)c1cn(-c2ccccc2)nc1-c1cccs1	inconclusive [activator, full curve, poor fit]	–
CCOC(=O)Nc1nc2ccc(Cn3cccc3)cc2[nH]1	active: 3.26 µM	–
C=C(C)COc1ccc2c3c(c(=O)oc2c1OCC(=C)C)CCC3	inconclusive [activator, single point]	–
COc1ccccc1CN(Cc1nc2ccccc2c(=O)[nH]1)S(=O)(=O)c1ccc(C)cc1	–	inactive: -4.85%
COc1ccccc1N(CC(=O)Nc1ccc(Cc2ccncc2)cc1)S(=O)(=O)c1ccccc1	inconclusive [activator, single point]	–
O=C(c1ccc(F)c(S(=O)(=O)N2CCOCC2)c1)N1CCN(c2ccc(F)cc2)CC1	inconclusive [activator, single point]	–
CC(=O)C1=C(O)C(=O)N(c2ccc(S(N)(=O)=O)cc2)C1c1ccc([N+](=O)[O-])cc1 (stereo not drawn)	–	inactive: 2.1%

— PubChem BioAssay AID624296 (National Center for Advancing Translational Sciences (NCATS), 2012)
